The record followed here is PubChem BioAssay AID1346428 (National Center for Advancing Translational Sciences (NCATS), 2018).

Screen size: about 48,000 compounds; about 1,200 (2.5%) were called active. About 2% were inconclusive and are not listed.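 The calls were made as follows: active = activation of at least 60% and not above a set upper limit (about 1 call in 100 departs from these limits); inconclusive = activation of 40% to 60%, or above that upper limit; inactive = activation under 40%.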 The list shows a part of the results.

Chain of UniProt O75388 (O75388 whole entry, looked up, the tested form may be a part): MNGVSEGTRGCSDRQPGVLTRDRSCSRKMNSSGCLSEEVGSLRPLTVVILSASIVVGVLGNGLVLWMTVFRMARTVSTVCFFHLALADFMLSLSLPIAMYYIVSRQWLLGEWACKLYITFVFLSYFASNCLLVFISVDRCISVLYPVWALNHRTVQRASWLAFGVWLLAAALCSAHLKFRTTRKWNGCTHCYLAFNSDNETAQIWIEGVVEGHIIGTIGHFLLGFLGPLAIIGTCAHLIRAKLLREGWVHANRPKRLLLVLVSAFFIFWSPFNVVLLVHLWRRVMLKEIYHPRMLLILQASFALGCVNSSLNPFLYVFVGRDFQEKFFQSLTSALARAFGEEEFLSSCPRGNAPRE

This experiment concerns the target Probable G-protein coupled receptor 32 (Homo sapiens) (UniProt O75388). Kind of experiment: qHTS for Agonists of Human Resolvin D1 Receptor DRV1. Also: 0% is about no effect. The conditions noted are these: CHO-K1 GPR32 beta-arrestin PathHunter luminescence, 90 min; at 76.9 µM; hits give high values; zero percent set by DMSO-only wells. In short, it runs like this:
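Agonism was scored as beta-arrestin recruitment to ProLink-fused GPR32 in stably transfected CHO-K1 cells, giving a chemiluminescent beta-Gal signal; compounds were incubated 90 min at 37 °C.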
As to `Cc1ccc2[nH]c(C(=O)Nc3ccccc3)cc2c1`, the activation was inactive: -1.18%. For `COc1ccc(-c2[nH]c(-c3ccccc3)nc2SCC(=O)Nc2ccc3c(c2)OCCO3)cc1`, the activation is inactive: -5.73%.

`CCOc1cc(C2NC(=O)c3c(sc4c3CCN(C)C4)N2)ccc1OC(=O)c1ccccc1Cl` (stereo not given): the activation was inactive: 6.25%. As to `COc1ccc(CCNC(=O)Cn2c(=O)c3cccn3c3ccc(F)cc32)c(OC)c1`, the activation was inactive: -20.7%. As for `Cc1ccc(C)c(-c2nnc(NC(=O)c3ccc4c(c3)OCCO4)o2)c1`, the activation was inactive: -28.6%. In the case of `CC(=O)Nc1ccc(Nc2nc3c(S(=O)(=O)c4cccc(Cl)c4)nnn3c3ccsc23)cc1`, the activation was inactive: -5.38%. In the case of `CCN(CC)Cc1c(NC(=O)c2ccc(OC)cc2)sc2c1CCCC2` it was inactive: -29.1%; in that of `Cc1cc(C)cc(-n2c(C)nc3cc(C(=O)NCc4ccccc4Cl)ccc32)c1`, inactive: -12%; in that of `COc1cccc(C(=O)Nc2ccc(-n3nncc3-c3ccccc3)cc2)c1`, inactive: -16%. In the case of `Cc1ccc(NC(=O)CN2C(=O)CCc3cc(S(=O)(=O)N4CCCCC4)ccc32)cc1C` it was inactive: 8.73%.

In the case of `COc1ccc(-c2cc(C(=O)Oc3cccc(C)c3)c3cc(C)ccc3n2)cc1`, the activation is inactive: 14.9%. Take `COc1ccc(CCNC(=O)c2cnc3sc(N4CCCCC4)nn3c2=O)cc1OC`: the activation was inactive: 3.62%. `Cc1oc2ncn(CC(C)C)c(=O)c2c1C(=O)NCCCN1CCC(C)CC1`: the activation is inactive: -12.5%. With `O=C(COc1ccccc1F)OCc1cc(=O)n2nc(C3CC3)sc2n1`, the activation is inactive: 26.5%.

As for `Cc1ccc(NC(=O)c2cc3c(=O)n(Cc4ccco4)ccc3nc2C)cc1C`, the activation was inactive: -20.4%. With `Cc1ccc(CN(C(=O)COc2ccc(Cl)cc2C)C2CCS(=O)(=O)C2)o1` (stereo not given), the activation is inactive: -20.6%. Next, `CCOC(=O)c1c(NC(=O)c2cc(CC(C)C)on2)sc(C(C)=O)c1C`: inactive: -0.797%; `CC[C@@H](C)[C@@H](C(=O)Nc1ccc(C)cc1)N1Cc2ccccc2C1=O`: inactive: -2.1%; `CCCn1c(=O)c2c(nc3n2CCN3c2ccc(C)cc2)n(C)c1=O`: inactive: -10.5%. On to `Cc1nc2sc(C(=O)N(C)c3ccccc3)c(NC(=O)c3ccccc3Cl)c2c(C)c1C`, for which the activation was inactive: -11.3%. As to `CSc1ccc(C2c3c(oc4cc(C)cc(C)c4c3=O)C(=O)N2CCO)cc1` (stereo not given), the activation is inactive: -10.8%.

As to `CCN(CC)C(=O)C1CN2CCc3cc(OC)c(OC)cc3C2CC1OC(C)=O` (stereo not given), the activation is inactive: -14.3%. In the case of `Cc1ccc(NC(=O)c2c(C)oc3ccc(O)c(CN4CCOCC4)c23)c(C)c1` it was inactive: -1.99%; in that of `COc1ccc(C2C(C(=O)Nc3ccccc3OC)=C(C)Nc3c(C(=O)Nc4ccccc4)cnn32)c(OC)c1` (stereo not given), inactive: -16.3%. On to `CCOc1ccc(NC(=O)N(Cc2c[nH]c3ccccc23)C2CCCCCC2)cc1`, for which the activation is inactive: -28.6%.

As to `COc1cn(CC(=O)Nc2ccccc2)c(CN2CCCCC2)cc1=O`, the activation is inactive: -4.53%. `CC(C)CCNC(=O)CCn1c(=O)c2cccn2c2cccnc21`: the activation was inactive: 2.37%. With `Cc1ccc(OCC(=O)N(Cc2ccco2)Cc2ccco2)cc1C`, the activation was inactive: -18.1%. For the compound `CC1=C(C(N)=O)C(c2ccc(C)cc2)n2nc(SCc3ccccc3F)nc2N1` (stereo not given), the activation was inactive: 22.1%. As for `CCOC(=O)c1cccc(NC(=O)c2cc(S(=O)(=O)N3CCCC(C)C3)cn2C)c1` (stereo not given), the activation is inactive: -1.95%. Take `CC(=O)Nc1ccccc1-c1nc2ccccc2n(CC(=O)c2ccc(Br)cc2)c1=O`: the activation was inactive: -1.94%. In the case of `Cc1cc(C)cc(NC2=C(c3ccccc3)C(=O)c3ccccc32)c1`, the activation is inactive: -39.2%.

For the compound `COc1cc(C2C(=O)N(C3CCCCC3)CC(=O)N2CCC2=CCCCC2)ccc1OC(C)C` (stereo not given), the activation was inactive: -16.1%. Turning to `COc1cccc(CNC(=O)CSc2nnc(C)c3c(C)n(-c4ccccc4)nc23)c1OC`, the activation was inactive: -5.71%. In the case of `CCOC(=O)C1CCCN(C(=O)Cn2ncc3c(C)n(Cc4ccccc4F)c(C)c3c2=O)C1` (stereo not given) it was inactive: -4.64%; in that of `COc1cccc(-n2cc(C(=O)Nc3cc(OC)c(OC)c(OC)c3)c3ccccc3c2=O)c1`, inactive: -19.4%; in that of `COC(=O)CNC(c1ccccc1)c1cc(Br)ccc1NC(=O)c1ccccc1` (stereo not given), inactive: -6.62%.

Turning to `CCc1cccc(C)c1NC(=O)C1CCN(c2nn3c(=O)cc(C)nc3s2)CC1`, the activation was inactive: 14.7%. Regarding `COc1ccc(-c2cc(C(F)(F)F)nc(SCC(=O)N3CCCCC3C)n2)cc1OC` (stereo not given), the activation is inactive: -3.54%. As to `N#CSCC(=O)O`, the activation is inactive: 15.3%.

Regarding `Cc1onc(-c2c(F)cccc2Cl)c1C(=O)Nc1ccc(OC(C)C)cc1`, the activation is inactive: -8.16%. In the case of `Cc1ccc2oc(=O)c3cc(C(=O)Nc4ccccc4C(N)=O)sc3c2c1` it was inactive: -2.23%. As for `CCOCCCn1c(=N)c(C(=O)NCc2cccnc2)cc2c(=O)n3cc(C)ccc3nc21`, the activation is inactive: 9.66%.

For `CCOC(=O)c1cnc2c(ccc3ccccc32)c1Nc1ccc(OCC)cc1`, the activation was inactive: -22.9%. `COc1ccc(S(=O)(=O)c2c(O)c3ccc(C(=O)NCc4ccccc4)cc3[nH]c2=O)cc1`: the activation was inactive: 10.9%. Regarding `COc1ccc(CCNC(=O)c2cc3c(s2)-c2ccccc2OC3)cc1OC`, the activation is inactive: -7.72%. For the compound `Fc1ccc(N2CCN(c3ncnc4c3nc3n4CCCCC3)CC2)cc1`, the activation was inactive: 22.5%. With `Cc1cccc(NC(=O)Nc2ccc(Br)cc2)n1`, the activation was inactive: 0.452%. As to `O=C1CCCc2cc(S(=O)(=O)NCC3CCC(C(=O)NCc4ccccc4Cl)CC3)ccc2N1` (stereo not given), the activation was inactive: 31.3%. For `O=C(Cn1ccc2ccccc2c1=O)NCCC(=O)Nc1ccc(F)cc1F`, the activation was inactive: -7.41%. Regarding `COc1ccccc1N1CCN(C(=O)c2c(C)oc3ncn(CC(C)C)c(=O)c23)CC1`, the activation is inactive: -4.79%. Turning to `Cc1ccc(-n2nc3c(N4CCC(C(=O)NC(C)c5ccccc5)CC4)nnc(C)c3c2C)cc1` (stereo not given), the activation is inactive: -14.1%. As to `CCOc1ccc(Nc2cc(C)nc3nc(Cc4ccc(Cl)cc4)nn23)cc1`, the activation was inactive: -17.9%. Next, `Cc1cnc(=O)[nH]c1SCC(=O)Nc1nc2ccccc2s1`: inactive: -2.35%; `Cc1ccc2oc(-c3cccc(NC(=O)c4sc5c([N+](=O)[O-])cccc5c4Cl)c3)nc2c1`: inactive: 0.447%; `O=c1c2sccc2n(Cc2cc(=O)n3ccccc3n2)c(=O)n1-c1cccc(C(F)(F)F)c1`: inactive: -13.2%. For the compound `CCOC(=O)c1cnc2ccccc2c1Nc1cccc(OC)c1`, the activation was inactive: -6.31%.

`CCc1ccc(C(=O)NC(Cc2c[nH]c3ccccc23)C(=O)OCC(=O)c2ccc(Br)cc2)cc1` (stereo not given): the activation is inactive: -23.9%. As for `Cc1cc2c(cc3c(SCC(=O)Nc4cccc(Cl)c4C)nnc(C)n32)o1`, the activation was inactive: -15.2%. Consider `CNS(=O)(=O)c1cc(-c2nnc(Nc3cc(C)ccc3C)c3ccccc23)ccc1C`, for which the activation is inactive: -4.09%. Next, `Cc1ccc(-c2nnc(SCC(=O)NCc3ccccc3)nc2-c2ccc(C)cc2)cc1`: inactive: -35.3%.

As to `COc1ccccc1N1CCN(C(=O)c2cnc(N3CCCCC3)c3ccccc23)CC1`, the activation was inactive: -17.5%. In the case of `Cc1cc(-c2ccc(C)c(S(=O)(=O)Nc3cccc(C#N)c3)c2)on1`, the activation was inactive: 21.9%. Take `COc1ccc(/C=C/C(=O)Nc2ccc(Cl)c(Cl)c2)cc1`: the activation is active: 67.6%.

Consider `O=C(COc1ccc(F)cc1)NCCc1nc2ccccc2[nH]1`, for which the activation is inactive: 27.6%. Consider `CCOc1ccc(CCNC(=O)c2c(C)oc3ncn(C)c(=O)c23)cc1`, for which the activation is inactive: -6.86%. For the compound `CC(C)CCOc1ccccc1Cn1c(=O)sc2ccccc21`, the activation was inactive: -29.6%. In the case of `Cc1ccc(Cl)cc1N1CCN(C(=O)c2ccc3nc(N4CCC(C)CC4)sc3c2)CC1`, the activation was inactive: -33.2%. With `CCOC(=O)c1cc(-c2ccccc2)n(CCC(=O)Nc2nc3c(C)cccc3s2)c1C`, the activation is inactive: -26.1%. For `Cc1ccccc1NS(=O)(=O)c1ccc2[nH]c3c(c2c1)CCCCC3`, the activation was inactive: 9.66%. Regarding `O=C(NCCCN1CCOCC1)c1ccc(Cl)cc1`, the activation is inactive: 3.78%. Consider `Cn1c(=O)c2sccc2n2c(CCCC(=O)Nc3ccc(Oc4ccc(Cl)cc4)cc3)nnc12`, for which the activation was inactive: -3.9%.

For the compound `CCc1ccc(-n2c(=O)c3c(C)c(C(=O)N(C)C)sc3n(Cc3ccccc3F)c2=O)cc1`, the activation is inactive: -2.93%. Regarding `CCOc1ccccc1CNC(=O)CCn1ccc2cc(S(=O)(=O)N3CCCCC3)ccc21`, the activation is inactive: -16.6%. For the compound `Cc1ccc(-c2cc3c(N4CCN(c5cc(C)ccc5C)CC4)nccn3n2)cc1`, the activation is inactive: 7.04%. For the compound `CC(=O)N1c2c(cc(Br)cc2S(=O)(=O)N2CCN(c3ccccc3)CC2)CC1C` (stereo not given), the activation is inactive: -1.48%. In the case of `COc1cccc(CNC(=O)c2ccc(NC(=O)N3CCCCc4ccccc43)cc2)c1OC` it was inactive: -2.02%; in that of `CCOc1cccc(OCCCn2c(-c3ccc(Br)cc3)nc3ccccc3c2=O)c1`, inactive: -4.38%. Consider `CC(=O)c1cccc(NC(=O)C(C)n2c(=O)cc(-c3ccccc3)c3c(C)nn(C)c32)c1` (stereo not given), for which the activation was inactive: -12.5%. As to `CCOc1ccc(-c2cc(-c3nc(-c4ccc(C)cc4)no3)[nH]n2)cc1`, the activation was inactive: -4.26%.

Take `CCN1C(=O)c2ccccc2S(=O)(=O)c2ccc(C(=O)NCc3ccccc3Cl)cc21`: the activation was inactive: -20.4%. For `COC(=O)CSc1ncc2c(n1)-c1ccccc1N(Cc1cccc(F)c1)S2(=O)=O`, the activation is inactive: -4.07%. Consider `O=C(Cn1c(=O)oc2cc(S(=O)(=O)N3CCCC3)ccc21)NCc1ccc(F)cc1`, for which the activation is inactive: 18.6%. Take `CCc1cccc(C)c1NS(=O)(=O)c1c(C)nc2sccn2c1=O`: the activation was inactive: -15.5%. `CCOC(=O)C1CCN(C(=O)CSc2n[nH]c(-c3ccc(F)cc3)n2)CC1`: the activation is inactive: -13.7%.
